The supplement of paper PMC3334620
Over roughly 33,000 sequences, “E-score (-0.5 to 0.5)” has its median near -0.041; the highest 2% begin near 0.37. This is one part of the list.

Biological target: T1, Ecm22 (UniProt Q05958)
T1 sequence: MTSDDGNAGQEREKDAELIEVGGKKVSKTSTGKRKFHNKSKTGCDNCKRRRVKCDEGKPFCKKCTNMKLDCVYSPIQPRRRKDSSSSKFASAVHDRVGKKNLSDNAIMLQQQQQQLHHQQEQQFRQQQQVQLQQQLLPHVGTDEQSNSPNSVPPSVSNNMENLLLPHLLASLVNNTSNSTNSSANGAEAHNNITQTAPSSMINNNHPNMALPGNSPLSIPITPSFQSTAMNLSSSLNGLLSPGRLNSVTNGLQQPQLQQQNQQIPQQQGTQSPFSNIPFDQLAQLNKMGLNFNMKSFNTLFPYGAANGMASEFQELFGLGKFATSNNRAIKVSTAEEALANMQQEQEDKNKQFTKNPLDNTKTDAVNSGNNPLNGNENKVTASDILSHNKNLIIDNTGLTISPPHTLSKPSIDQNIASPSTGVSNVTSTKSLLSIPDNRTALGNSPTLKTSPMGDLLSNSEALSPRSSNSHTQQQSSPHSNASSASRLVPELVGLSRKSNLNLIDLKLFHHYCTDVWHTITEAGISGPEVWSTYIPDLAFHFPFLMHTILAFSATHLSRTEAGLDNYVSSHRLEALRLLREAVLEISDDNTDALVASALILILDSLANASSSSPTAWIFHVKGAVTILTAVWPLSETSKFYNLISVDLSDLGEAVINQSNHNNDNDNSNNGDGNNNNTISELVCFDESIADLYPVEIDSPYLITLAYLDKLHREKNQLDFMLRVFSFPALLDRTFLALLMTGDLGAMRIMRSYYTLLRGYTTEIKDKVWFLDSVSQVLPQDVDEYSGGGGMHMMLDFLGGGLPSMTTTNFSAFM
Assay: PBM E-score (8-mer binding enrichment) (E-score (-0.5 to 0.5)); higher = stronger / more preferred TF binding; most listed sequences are background and not binding sites
Details: protein concentration: 200 nM; construct: GST-full length
Outline: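 PURExpress in vitro transcription/translation supplied GST-tagged yeast transcription factors, either full-length or DNA-binding domain. Applied at about 100-200 nM to universal all-10-mer Agilent arrays double-stranded by primer extension, the bound protein was detected with fluorescent anti-GST. E-scores, modified Wilcoxon-Mann-Whitney statistics, were given by the Universal PBM Analysis Suite to ungapped eight-base words pooled with their reverse complements after masliner normalisation.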

Sequence | PBM E-score
ATCACAAT | 0.00653
GAGTCCGC | -0.199
TAGATGGA | -0.14
GGACGCAC | -0.122
GTAGAATA | 0.0292
TCCACGCA | -0.0188
CTAGCAAC | 0.118
ACGTGACG | -0.0464
AGCAGACA | -0.178
CACAAAGG | -0.0764
ACGGACAT | 0.141
CCACAGCC | -0.0882
CCCAGTCC | -0.236
CCCACTGA | -0.165
GTGACATA | -0.131
CTCCAGAG | -0.298
CCTCCTAG | -0.245
AGGACTGG | -0.348
AATTCAAA | -0.00386
ACCAAGGG | -0.0669
GGGTGTAA | 0.0443
ATAGTCAA | 0.115
AGGGTGCC | -0.364
GGTCGCGA | 0.248
CACTCCCG | -0.101

Sequence | PBM E-score
CGGACAAG | 0.108
CTAAGAAG | -0.0845
CAAACCCA | -0.192
GAGCGACC | 0.305
GAATAGTA | 0.124
CGTATCCA | 0.299
AGTAAATC | -0.201
AACACGCC | -0.0315
GGATAAGA | -0.12
AAGATTGA | -0.203
GAAATGTC | 0.0172
ACATTTAT | -0.114
GCTCTTTA | 0.0801
ACGGACTC | 0.0106
ACTGAGAA | -0.0118
GCAACCCC | -0.263
ATGACGAG | 0.0778
CGGGATTA | 0.0663
ATAAATGG | -0.14
ATCGTTGA | 0.183
AGCATTAG | -0.263
CACCTTAG | -0.335
ATCGTCAA | 0.0354
CTCTCTGC | -0.015
ACCCACGT | -0.0378

Sequence | PBM E-score
AAACGGTA | 0.287
GTACAACA | 0.272
GTACACAA | 0.102
CTATGACA | -0.181
GCAGGAAC | 0.0756
CATGCCGG | 0.0474
ATACATGC | 0.175
CGCGTTCA | 0.185
CGTCTTGA | -0.0385
AACAGAAA | -0.208
ACGATGGC | 0.255
TACTGGGA | -0.0814
TGTGTTAA | 0.0214
ACCCGAGG | 0.194
AGCGAGGG | 0.249
AGTGCGAC | 0.137
CGAAAGAA | 0.157
CCATTATA | -0.0361
ATGGTTTA | 0.0156
CTCGTTGC | 0.445
ATGGCCAA | -0.212
GTGTAATA | 0.0256
GCGGGCCA | -0.117
AGATTTAG | 0.0438
TACATTAA | 0.145

Sequence | PBM E-score
CTCTTGTC | 0.0278
ACATGGTA | 0.134
AATTATCC | 0.23
ATCAAAGG | -0.234
CAAGGGCA | -0.353
ACGCCATC | -0.0135
ATGAGACC | -0.123
CCACCGAA | 0.0777
ATTCATGA | -0.168
GGCCTGAC | -0.258
ACATTAGG | -0.203
CACTGGAA | 0.0376
AAGCTCGT | 0.38
ATTCTTTC | -0.0407
GAGCGAGA | 0.377
GACAAGCA | -0.158
ACTGGAAA | -0.0956
ATGTGGGA | -0.236
AATTTGCG | 0.145
GCTGTACA | -0.0393
GAACATTC | -0.0602
GAGGCGAA | -0.00073
CTTGACAA | -0.0167
CGAGGGTC | 0.231
AGGCGACC | -0.0532

Sequence | PBM E-score
GATCATCA | -0.0676
ACAGAAGT | -0.182
TCACCTGA | -0.332
ATCGATCA | 0.154
CCATGGAC | -0.101
CCGTAAAC | 0.355
GCCAGCCC | -0.185
CCGCAGGA | -0.252
CGAGCCTC | 0.251
ACGCCTCT | -0.179
CGCCGATA | 0.0708
ATCGCGCG | 0.211
ACCGAAGC | 0.119
ACGAAGGC | 0.319
TCCATGCA | -0.178
ACTCTACA | -0.123
AGCACGCT | -0.119
CACTCCGA | -0.0912
ACTGTAGG | -0.1
ACGAAGGA | 0.362
AAAGGTCG | 0.00556
CTTACGTC | -0.0355
TCATTAAA | 0.0422
GTTATGGA | -0.0843
CTTAGTAA | -0.197

Sequence | PBM E-score
TCTTAAAA | -0.223
ACGGCGTG | 0.145
AGTGGTTG | -0.0826
CGAGTTTC | 0.248
GAATAGCC | -0.147
GAAGGACC | -0.183
ATGAACAA | 0.0355
AACAGCGA | -0.0103
AATAGGCA | -0.16
GAGGCTAC | -0.0866
GGACGCGA | -0.0208
AGCTGTAT | -0.124
ACCTTACC | -0.0514
CCGCTAGC | -0.195
TAGCAACA | 0.0917
AATGCCCG | 0.0448
AAGCACCA | -0.266
ACCAATAG | -0.255
CCTCTGCC | -0.333
CGAATGTC | -0.00475
AGTGCTTG | -0.0652
AACATACG | 0.373
CTCTCCTA | -0.127
ATTTGCCG | 0.0916
AAGAAGTA | 0.0382

Sequence | PBM E-score
AAGATACA | -0.046
ATATGGGG | -0.185
CACCAAGC | -0.0761
AGAGAGCG | -0.0255
GGTCTGTA | 0.0648
ATGGGGGC | -0.288
CAGTCCCC | -0.227
ACTAGACG | 0.0989
CACAAATG | -0.0741
GCGGACCC | -0.0681
GTACGGCA | 0.395
CAACGGAA | 0.0411
ATATGAAC | 0.113
CCAGTGAC | -0.286
ACCGGCAT | -0.0694
GTCACGGA | -0.0819
CAGATTGG | -0.345
GTCCGGCA | -0.148
AAGGCGAA | -0.0952
ACGTTTTC | 0.192
AAGAATTC | -0.128
GTCTGAAC | 0.0949
